Article PMC3526290, “CAF-1-induced oligomerization of histones H3/H4 and mutually exclusive interactions with Asf1 guide H3/H4 transitions among histone chaperones and DNA” (Nucleic Acids Research, 2012)

Tests used:
[1] = target: T1, Cac2 (p60), full-length, CAF-1 subunit (budding yeast, UniProt Q04199); experiment: fluorescence polarisation; fluorescence anisotropy; 10 nM *Asf1 (alone or pre-bound to 20 nM H3/H4) or 100 nM *Asf1^1-169, Cac2 or CAF-1 titrated; 20 mM HEPES, 150 mM NaCl, pH 7.4, 20°C; conditions: both partners purified
T1 construct: Cac2 (p60), subunit of CAF-1, budding yeast, full length; Plasmid construction is in the Supplementary Methods; also called full-length Cac2; source: E. coli Rosetta pLysS, purified (Ni-NTA, Superdex 200)

[2] = target: T2, Chromatin Assembly Factor 1 (CAF-1) complex: Cac1, Cac2, Cac3 (Saccharomyces cerevisiae, UniProt Q12495; Q04199; P13712); experiment: as above; conditions: both partners purified
T2 construct: Cac1 (p90), subunit of CAF-1, Saccharomyces cerevisiae; Cac2 (p60), subunit of CAF-1, Saccharomyces cerevisiae; Cac3 (p48 or MSi1p), subunit of CAF-1, Saccharomyces cerevisiae; also called intact CAF-1 complex; tri-subunit CAF-1 complex; source: Sf9 insect cells co-infected with baculoviruses, purified (StrepTrap HP, Superdex 200); not shown: Strep II, C-terminal, kept; His6, C-terminal, kept; …

Kd [1]: 3.3 µM | Kd [2]: 3.4 µM
B1: Asf1^[…] labeled with Alexa Fluor 532 (*Asf1^[…]) (domain or fragment)
chain: not shown
modifications: Alexa Fluor 532
